# Test results as given in the supplement of paper PMC8728848.
# This is one part of the list.
# Key:
# Experiment in all cases: glycan array binding signal (z-score within array); higher = stronger binding
# Conditions in all cases: glycan notation: IUPAC condensed, linker removed
# [1] = biological target: Man(a1-3)[Man(a1-6)]Man(a1-6)[Man(a1-2)Man(a1-3)]Man(b1-4)GlcNAc(b1-4)GlcNAc
# Outline: (§1)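 Columns mapping to the same glycan were averaged after glycan names were converted to IUPAC-condensed notation. The data come from 3228 arrays in the Consortium for Functional Glycomics database, limited to those with an available protein sequence. Binding is reported as a within-array Z-score averaged across arrays of one protein sequence and across linkers.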
# [2] = biological target: Man(a1-3)[Man(a1-6)]Man(a1-6)[Man(a1-3)]Man
# Outline: as §1
# [3] = biological target: Man(a1-3)[Man(a1-6)]Man(a1-6)[Man(a1-3)]Man(b1-4)GlcNAc(b1-4)GlcNAc
# Outline: as §1
# [4] = biological target: Man(a1-3)[Man(a1-6)]Man(b1-4)GlcNAc(b1-4)GlcNAc
# Outline: as §1
# [5] = biological target: Man(a1-6)Man
# Outline: as §1
# [6] = biological target: Man(b1-4)GlcNAc
# Outline: as §1
# [7] = biological target: Neu5Ac(a2-3)Gal
# Outline: as §1
# [8] = biological target: Neu5Ac(a2-3)Gal(b1-3)GalNAc
# Outline: as §1
# [9] = biological target: Neu5Ac(a2-3)Gal(b1-3)GalNAc(b1-3)Gal(a1-4)Gal(b1-4)Glc
# Outline: as §1
# [10] = biological target: Neu5Ac(a2-3)Gal(b1-3)GalNAc(b1-3)Gal(b1-4)GlcNAc
# Outline: as §1
# [11] = biological target: Neu5Ac(a2-3)Gal(b1-3)GalNAc(b1-4)[Neu5Ac(a2-3)]Gal(b1-4)Glc
# Outline: as §1
# [12] = biological target: Neu5Ac(a2-3)Gal(b1-3)GalNAc6S
# Outline: as §1
# [13] = biological target: Neu5Ac(a2-3)Gal(b1-3)GlcNAc
# Outline: as §1
# [14] = biological target: Neu5Ac(a2-3)Gal(b1-3)GlcNAc(b1-3)Gal(b1-3)GlcNAc
# Outline: as §1
# [15] = biological target: Neu5Ac(a2-3)Gal(b1-3)GlcNAc6S
# Outline: as §1
# [16] = biological target: Neu5Ac(a2-3)Gal(b1-3)[Fuc(a1-4)]GlcNAc
# Outline: as §1
# [17] = biological target: Neu5Ac(a2-3)Gal(b1-3)[Fuc(a1-4)]GlcNAc(b1-3)Gal(b1-4)[Fuc(a1-3)]GlcNAc
# Outline: as §1
# [18] = biological target: Neu5Ac(a2-3)Gal(b1-3)[Neu5Ac(a2-3)Gal(b1-4)]GlcNAc
# Outline: as §1
# [19] = biological target: Neu5Ac(a2-3)Gal(b1-3)[Neu5Ac(a2-6)]GalNAc
# Outline: as §1
# [20] = biological target: Neu5Ac(a2-3)Gal(b1-4)Glc
# Outline: as §1
# [21] = biological target: Neu5Ac(a2-3)Gal(b1-4)GlcNAc
# Outline: as §1
# [22] = biological target: Neu5Ac(a2-3)Gal(b1-4)GlcNAc(b1-2)Man(a1-3)[GlcNAc(b1-2)Man(b1-4)GlcNAc(b1-2)Man(a1-6)]Man(b1-4)GlcNAc(b1-4)GlcNAc
# Outline: as §1
# [23] = biological target: Neu5Ac(a2-3)Gal(b1-4)GlcNAc(b1-2)Man(a1-3)[Neu5Ac(a2-6)Gal(b1-4)GlcNAc(b1-2)Man(a1-6)]Man(b1-4)GlcNAc(b1-4)GlcNAc
# Outline: as §1
# [24] = biological target: Neu5Ac(a2-3)Gal(b1-4)GlcNAc(b1-3)Gal(b1-3)GlcNAc
# Outline: as §1
# [25] = biological target: Neu5Ac(a2-3)Gal(b1-4)GlcNAc(b1-3)Gal(b1-4)GlcNAc
# Outline: as §1
# [26] = biological target: Neu5Ac(a2-3)Gal(b1-4)GlcNAc(b1-3)Gal(b1-4)GlcNAc(b1-3)Gal(b1-4)GlcNAc
# Outline: as §1
# [27] = biological target: Neu5Ac(a2-3)Gal(b1-4)GlcNAc(b1-3)Gal(b1-4)[Fuc(a1-3)]GlcNAc
# Outline: as §1
# [28] = biological target: Neu5Ac(a2-3)Gal(b1-4)GlcNAc(b1-6)[Gal(b1-3)]GalNAc
# Outline: as §1
# [29] = biological target: Neu5Ac(a2-3)Gal(b1-4)GlcNAc(b1-6)[Neu5Ac(a2-3)Gal(b1-3)]GalNAc
# Outline: as §1
# [30] = biological target: Neu5Ac(a2-3)Gal(b1-4)GlcNAc6S
# Outline: as §1
# [31] = biological target: Neu5Ac(a2-3)Gal(b1-4)[Fuc(a1-3)]GlcNAc
# Outline: as §1
# [32] = biological target: Neu5Ac(a2-3)Gal(b1-4)[Fuc(a1-3)]GlcNAc(b1-3)Gal
# Outline: as §1
# [33] = biological target: Neu5Ac(a2-3)Gal(b1-4)[Fuc(a1-3)]GlcNAc(b1-3)Gal(b1-4)GlcNAc
# Outline: as §1
# [34] = biological target: Neu5Ac(a2-3)Gal(b1-4)[Fuc(a1-3)]GlcNAc(b1-3)Gal(b1-4)[Fuc(a1-3)]GlcNAc(b1-3)Gal(b1-4)[Fuc(a1-3)]GlcNAc
# Outline: as §1
# [35] = biological target: Neu5Ac(a2-3)Gal(b1-4)[Fuc(a1-3)]GlcNAc(b1-6)[Gal(b1-3)]GalNAc
# Outline: as §1
# [36] = biological target: Neu5Ac(a2-3)Gal(b1-4)[Fuc(a1-3)]GlcNAc6S
# Outline: as §1
# [37] = biological target: Neu5Ac(a2-3)Gal6S(b1-4)GlcNAc
# Outline: as §1
binder,measurement,setting,value
"MIC1 (Toxoplasma gondii), O00834 (protein) MGQALFLTVLLPVLFGVGPEAYGEASHSHSPASGRYIQQMLDQRCQEIAAELCQSGLRKMCVPSSRIVARNAVGITHQNTLQWRCFDTASLLESNQENNGVNCVDDCGHTIPCPGGVHRQNSNHATRHEILSKLVEEGVQRFCSPYQASANKYCNDKFPGTIARRSKGFGNNVEVAWRCYEKASLLYSVYAECASNCGTTWYCPGGRRGTSTELDKRHYTEEEGIRQAIGSVDSPCSEVEVCLPKDENPPLCLDESGQISRTGGGPPSQPPEMQQPADRSDERGGGKEQSPGGEAQPDHPTKGGNIDLPEKSTSPEKTPKTEIHGDSTKATLEEGQQLTLTFISTKLDVAVGSCHSLVANFLDGFLKFQTGSNSAFDVVEVEEPAGPAVLTIGLGHKGRLAVVLDYTRLNAALGSAAYVVEDSGCSSSEEVSFQGVGSGATLVVTTLGESPTAVSA",glycan array binding signal (z-score),[1],0.018
same,glycan array binding signal (z-score),[2],-0.2
same,glycan array binding signal (z-score),[3],-0.244
same,glycan array binding signal (z-score),[4],-0.289
same,glycan array binding signal (z-score),[5],-0.154
same,glycan array binding signal (z-score),[6],-0.1
same,glycan array binding signal (z-score),[7],-0.068
same,glycan array binding signal (z-score),[8],-0.13
same,glycan array binding signal (z-score),[9],-0.265
same,glycan array binding signal (z-score),[10],-0.358
same,glycan array binding signal (z-score),[11],-0.19
same,glycan array binding signal (z-score),[12],-0.097
same,glycan array binding signal (z-score),[13],-0.262
same,glycan array binding signal (z-score),[14],-0.175
same,glycan array binding signal (z-score),[15],0.131
same,glycan array binding signal (z-score),[16],-0.235
same,glycan array binding signal (z-score),[17],-0.334
same,glycan array binding signal (z-score),[18],4.31
same,glycan array binding signal (z-score),[19],2.18
same,glycan array binding signal (z-score),[20],-0.2
same,glycan array binding signal (z-score),[21],1.57
same,glycan array binding signal (z-score),[22],3.01
same,glycan array binding signal (z-score),[23],2.72
same,glycan array binding signal (z-score),[24],-0.139
same,glycan array binding signal (z-score),[25],-0.368
same,glycan array binding signal (z-score),[26],-0.289
same,glycan array binding signal (z-score),[27],-0.229
same,glycan array binding signal (z-score),[28],-0.177
same,glycan array binding signal (z-score),[29],-0.104
same,glycan array binding signal (z-score),[30],6.25
same,glycan array binding signal (z-score),[31],-0.152
same,glycan array binding signal (z-score),[32],0.023
same,glycan array binding signal (z-score),[33],-0.303
same,glycan array binding signal (z-score),[34],-0.178
same,glycan array binding signal (z-score),[35],0.387
same,glycan array binding signal (z-score),[36],-0.211
same,glycan array binding signal (z-score),[37],-0.301
